# Assay results as given in article PMC10668032.
# This is one part of the list. At the low end of the ranking, values are background and their order means little.
# Molecular target: SIX1-Q177R homeodomain (UniProt Q15475)
# Assay: universal protein binding microarray
# Settings: Universal all-10-mer PBM (8x60K, AMADID 030236), 300 nM GST-tagged protein, Alexa Fluor 488 anti-GST; buffer, salt, pH and temperature not stated; high values mean tight binding; most listed sequences are background and not binding sites; double strand, one strand shown
row,Sequence,binding signal
1,AAAGTCAG,-0.179 E-score
2,CGGTTTAA,-4e-05 E-score
3,GCCAGTAC,-0.101 E-score
4,AGAGATCC,-0.0895 E-score
5,AAGGTCCC,-0.195 E-score
6,CCATTCAG,-0.0783 E-score
7,TCCGCAAA,-0.136 E-score
8,GCCCACAC,0.255 E-score
9,CTGATTTA,-0.0876 E-score
10,CCGATACC,0.361 E-score
11,AGGCTGAG,-0.157 E-score
12,CGTACGGA,-0.012 E-score
13,CCGCGTAC,0.148 E-score
14,GACTCCCC,0.161 E-score
15,GTGTGTTA,0.298 E-score
16,GCAAGTCC,-0.0545 E-score
17,CGATTAAC,0.227 E-score
18,ACCGCACC,0.247 E-score
19,CTGCAGGA,-0.166 E-score
20,CGCGCAAC,0.0495 E-score
21,CACTGAAA,0.0961 E-score
22,CAGATATC,0.0442 E-score
23,AAAAATGC,0.0151 E-score
24,GCGAAGTA,-0.14 E-score
25,CCTAAGGA,0.0374 E-score

row,Sequence,binding signal
1,ATCGCGCG,-0.0473 E-score
2,AGGGTATG,0.226 E-score
3,AGACGGGG,0.0576 E-score
4,AGCGTCGG,-0.126 E-score
5,AGCAAATA,-0.192 E-score
6,ATTGCTCA,-0.154 E-score
7,CTCAAGAG,-0.217 E-score
8,AGGATGGA,-0.255 E-score
9,ACCCGCCT,0.206 E-score
10,AAAACCTA,-0.252 E-score
11,CCCGCCAA,0.00322 E-score
12,GGGGAGGA,0.00218 E-score
13,TCGCTGCA,-0.278 E-score
14,GTGCGGAA,0.0821 E-score
15,ACAGTTTA,-0.0784 E-score
16,GACTCGTA,0.0647 E-score
17,ATGGCAAG,-0.264 E-score
18,AGCATCCG,0.03 E-score
19,TACTAACA,0.185 E-score
20,TCACACGA,0.226 E-score
21,CGCTTGGC,-0.0892 E-score
22,ATGGGTGG,0.0958 E-score
23,AAAAAAGC,-0.357 E-score
24,CTAATACC,0.0317 E-score
25,CCTCGCAC,0.131 E-score

row,Sequence,binding signal
1,ATTGCACG,0.00949 E-score
2,ACGACAGC,-0.106 E-score
3,ACATCACC,-0.0533 E-score
4,CGAGAGAG,-0.023 E-score
5,AATCCGAG,-0.0428 E-score
6,ACCCTTGA,0.146 E-score
7,CGGCCGGC,-0.0369 E-score
8,AAGGTGCG,0.09 E-score
9,ACCCGTAC,0.134 E-score
10,ACCACATG,0.0728 E-score
11,ATTAGATG,-0.0667 E-score
12,CCTCCATC,-0.0436 E-score
13,ATGCCCTG,0.00891 E-score
14,CCGGGGTC,0.323 E-score
15,GATTAGGA,-0.183 E-score
16,AAATAGGA,-0.132 E-score
17,GGGAATTA,-0.141 E-score
18,GCTAACGA,-0.004 E-score
19,ACGCTAAT,-0.263 E-score
20,CGACCCCG,0.255 E-score
21,AAGACCCA,-0.259 E-score
22,TCCGGCAA,-0.00316 E-score
23,CTGTAACC,-0.0031 E-score
24,GCGGCCGA,-0.186 E-score
25,GAGAAGCC,-0.194 E-score

row,Sequence,binding signal
1,ATCCAGCA,-0.13 E-score
2,CGAAACAC,0.339 E-score
3,AAACAAGA,-0.0272 E-score
4,CAAGGGAG,0.00352 E-score
5,AAACTTAA,-0.237 E-score
6,AAGTCCCG,-0.169 E-score
7,CTCGGAAG,-0.0441 E-score
8,CTGTTCGA,-0.183 E-score
9,TACATGCA,-0.0265 E-score
10,TATTGGGA,0.0187 E-score
11,AAGGGGTG,0.227 E-score
12,CGTGGATA,0.0791 E-score
13,CGCGATAG,-0.112 E-score
14,AAGATGTG,-0.00104 E-score
15,AGTTCCAG,-0.0276 E-score
16,GATAAACA,0.00274 E-score
17,CCATTTTA,0.0355 E-score
18,AAGAACGA,-0.0291 E-score
19,CATCAGCG,0.153 E-score
20,GAACACAA,0.13 E-score
21,CCTGATTC,-0.182 E-score
22,AAACGCCC,-0.0508 E-score
23,CAAGGGGA,-0.0885 E-score
24,CCTGGACC,-0.103 E-score
25,ATTTGGTA,0.00694 E-score

row,Sequence,binding signal
1,CTAAGTAA,-0.16 E-score
2,CCGCTGAA,-0.13 E-score
3,AAGGCCTG,-0.215 E-score
4,AATATGCG,-0.0226 E-score
5,CTCGGAGC,-0.0463 E-score
6,AAATTCAT,-0.176 E-score
7,GGAGGCTA,0.0196 E-score
8,GACGCTTA,0.047 E-score
9,CCAAACCC,0.0736 E-score
10,GGCCAACA,0.217 E-score
11,GCCCTCGA,-0.104 E-score
12,ACGGGAGA,0.0309 E-score
13,AATAAGCT,-0.0358 E-score
14,GAGTGCAA,0.144 E-score
15,AAAGATGA,0.0114 E-score
16,CACTAAAA,0.0649 E-score
17,CGCCAAAC,-0.0379 E-score
18,CTCATATC,-0.25 E-score
19,AATGTTAC,-0.081 E-score
20,ACGTCCTG,-0.0852 E-score
21,GTCGTGAA,0.017 E-score
22,TCCGTCAA,-0.204 E-score
23,ACTTGCGA,0.0486 E-score
24,CTTGATCC,0.151 E-score
25,CAAGGAAA,-0.166 E-score

row,Sequence,binding signal
1,ATTTGTTA,-0.282 E-score
2,CAACACTC,0.36 E-score
3,AACGTAGG,-0.0932 E-score
4,ATGTCCTC,-0.0974 E-score
5,AGTATAAA,-0.103 E-score
6,CCTCAGAC,-0.0762 E-score
7,GCAGGGCA,-0.062 E-score
8,AATGGTAT,0.227 E-score
9,CACTCGCG,0.232 E-score
10,CTCAAGAC,-0.0575 E-score
11,CGTTGGTC,-0.0903 E-score
12,CAACGCCC,0.00874 E-score
13,CTTGGCCA,-0.0399 E-score
14,CTCGTCAG,-0.00466 E-score
15,AGACGACG,-0.0138 E-score
16,AGTGGCGG,-0.0362 E-score
17,ACCCTAGC,0.15 E-score
18,GCAATCCC,-0.0647 E-score
19,CGGGACCA,-0.235 E-score
20,GTAACTGA,-0.0896 E-score
21,ACAACCCA,0.0452 E-score
22,AAGGAGAA,-0.186 E-score
23,CCAACGTC,-0.092 E-score
24,GTCTAATA,0.0285 E-score
25,ACTATAGT,0.00543 E-score

row,Sequence,binding signal
1,ATTCACCG,-0.286 E-score
2,CTAGCGTA,0.0681 E-score
3,AAGTCGCA,-0.144 E-score
4,ACGACGCG,0.0486 E-score
5,TTTCCAAA,-0.00331 E-score
6,AAATCGTA,-0.122 E-score
7,CATGCACG,0.0334 E-score
8,CGTCAAGC,-0.0428 E-score
9,GGACGGGA,-0.224 E-score
10,ACGCTCAC,0.00977 E-score
11,GGGTTAAA,0.214 E-score
12,CGAATTTA,-0.00042 E-score
13,CCACCTCA,0.0301 E-score
14,CCTTGCAC,-0.0404 E-score
15,ATGTACGA,0.113 E-score
16,ACTAGGTA,0.0396 E-score
17,TATACATA,-0.131 E-score
18,CGGAGGGC,-0.0217 E-score
19,TCCCACCA,-0.00146 E-score
20,TAGTCGAA,-0.0878 E-score
21,AACAGCTT,-0.164 E-score
22,ACGGGGCT,-0.123 E-score
